Source: the BET-seq Pho4 binding data (Le et al. 2018)
The list shows a part of the results. The energies were worked out here from pooled read counts, against the library average; single values are noisy.

Each sequence was assayed against T1, Pho4 (S. cerevisiae) (UniProt P07270) (assay: relative binding free energy (BET-seq); higher = weaker binding). Conditions: reference: library average.
T1 sequence: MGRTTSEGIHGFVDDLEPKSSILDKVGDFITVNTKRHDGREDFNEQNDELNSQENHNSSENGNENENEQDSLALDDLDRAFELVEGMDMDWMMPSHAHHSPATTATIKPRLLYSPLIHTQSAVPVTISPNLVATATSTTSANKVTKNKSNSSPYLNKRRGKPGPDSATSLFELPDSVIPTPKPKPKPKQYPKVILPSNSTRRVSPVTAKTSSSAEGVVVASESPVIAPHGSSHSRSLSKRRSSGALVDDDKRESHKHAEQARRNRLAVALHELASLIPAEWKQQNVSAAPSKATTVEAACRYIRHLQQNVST

| Sequence | relative binding free energy [kJ/mol] |
| --- | --- |
| AGACGCACGTGGTTGT | -0.586 |
| GCGTTCACGTGCTGGA | 1.34 |
| AAGGGCACGTGTGCAT | -0.669 |
| CTTTCCACGTGGGTGG | -0.209 |
| GCTAGCACGTGGGTTA | -1.05 |
| GCATGCACGTGGGGCA | -0.167 |
| TGCCGCACGTGGTGGT | -0.711 |
| GAGTTCACGTGTGGGA | 1.26 |
| GTTCCCACGTGGGGGG | -1.17 |
| GTGTTCACGTGATTAT | 1.34 |
| AGCGGCACGTGGGACG | -0.795 |
| CATCTCACGTGTTGGT | 1.38 |
| TATTACACGTGGAGGT | 0.377 |
| AGGACCACGTGTTGTT | -0.251 |
| TATCTCACGTGGATGT | 1.42 |
| TTATTCACGTGTGTAA | 1.42 |
| ATGTACACGTGTCGTG | -0.544 |
| ATGTACACGTGAAGGG | 1.59 |
| TTATGCACGTGGTAGG | -0.209 |
| TATGTCACGTGACAAG | 0.879 |
| GATTACACGTGAATGG | 1.46 |
| TCAGACACGTGGTGGG | -0.0418 |
| TTGGTCACGTGGCAGA | 0 |

| Sequence | relative binding free energy [kJ/mol] |
| --- | --- |
| TTCTTCACGTGGTTCG | 1 |
| TTTTGCACGTGCGTCA | -0.335 |
| AACGGCACGTGGTGGC | -0.586 |
| TAACTCACGTGTGGGA | 1.05 |
| ATCTGCACGTGGTCGG | -0.711 |
| GGCCGCACGTGGGGTT | -0.669 |
| GTGGGCACGTGACGGA | -0.251 |
| GTATGCACGTGTGCGC | 0 |
| GATTGCACGTGGAGTT | 0.209 |
| GTGTACACGTGGGACT | 0.293 |
| TCCGGCACGTGGGTCG | -0.711 |
| GTTGTCACGTGTTGAG | 0.879 |
| TGTTGCACGTGCGGCA | -0.628 |
| GGTATCACGTGCGGGT | 0.209 |
| TTGTTCACGTGACTAG | 1.38 |
| TGGGGCACGTGCTAGT | -0.669 |
| CGGGGCACGTGTGAGT | 0.167 |
| AGTTTCACGTGCAGGG | 1.05 |
| GGGCGCACGTGTATAG | -0.335 |
| TGGAACACGTGTTGGT | 0.711 |
| GGAGGCACGTGTTCGT | -0.418 |
| CGCGGCACGTGTGGAG | -0.418 |
| TGAAACACGTGTTAGT | -0.251 |

| Sequence | relative binding free energy [kJ/mol] |
| --- | --- |
| AATTGCACGTGTCTAT | 0.418 |
| CATAGCACGTGTTTGG | -0.0837 |
| ATGGGCACGTGTGGAG | -0.46 |
| TTCGTCACGTGTTTCT | -0.0418 |
| ATTACCACGTGATGGG | 0 |
| ATGCACACGTGGGTCG | 0.0418 |
| TGGATCACGTGTGGAG | 1.13 |
| GTCTTCACGTGGGGAT | 0.628 |
| AGGTGCACGTGCTTTG | -0.586 |
| GTTTACACGTGGCGTG | 0.544 |
| CAAGGCACGTGAGTAG | 0.795 |
| AGAGTCACGTGAAGGG | 1.38 |
| ATGGGCACGTGGTGAT | -0.586 |
| ATGGTCACGTGAGGGG | 1.3 |
| GGCTGCACGTGATATG | 0.879 |
| TAGTGCACGTGGTATG | -0.46 |
| GGTTCCACGTGTGGCA | 0.46 |
| TTCTTCACGTGCGTGG | 0.586 |
| CGGCGCACGTGGTGGC | -1.13 |
| TATGGCACGTGGTGTA | -0.879 |
| TTGGTCACGTGCCTTT | -0.544 |
| TCGGGCACGTGCGGTG | -0.46 |
| TTGGACACGTGGGGTC | -0.377 |

| Sequence | relative binding free energy [kJ/mol] |
| --- | --- |
| AGTAACACGTGTTCGG | -0.0837 |
| AAATACACGTGGATGG | 0.502 |
| AGGAGCACGTGCGTTT | -0.418 |
| AATTTCACGTGCTGGC | 1.76 |
| GTTGCCACGTGTTTAA | 0.251 |
| TTAGACACGTGACGTG | 0.293 |
| GTACACACGTGGTATG | 0.126 |
| GCTGTCACGTGAAGGG | 1.59 |
| ATGGTCACGTGTAATA | 0.753 |
| ACGGCCACGTGAGTGG | 0.586 |
| TATGGCACGTGGGCCG | -1.05 |
| ACATGCACGTGGGTGA | -0.795 |
| TACAGCACGTGAGGTG | 0.795 |
| ATGATCACGTGTGATA | 1.38 |
| TTAGCCACGTGTGGAT | -0.0418 |
| TTGCGCACGTGGTTAA | -0.753 |
| AGCTCCACGTGGTGGG | -0.669 |
| TGGCGCACGTGGATGA | -0.126 |
| TAGTACACGTGTAGGT | 0.544 |
| GGTTTCACGTGTCTTT | 0.92 |
| GGTGGCACGTGTGCGC | 0.126 |
| ATGTACACGTGGGTAC | -0.418 |
| TGTCGCACGTGGGCTG | -1.59 |

| Sequence | relative binding free energy [kJ/mol] |
| --- | --- |
| AGGGGCACGTGATGCA | -0.251 |
| TCAGACACGTGGGGTA | -0.628 |
| TGATTCACGTGGACGG | 1.72 |
| TTAGGCACGTGCACGG | -0.628 |
| TTTGACACGTGCGGCG | -0.46 |
| TGACGCACGTGGTATG | -0.92 |
| GTTGGCACGTGCTTGT | -0.377 |
| GTGCACACGTGGGGCG | 0 |
| AGCGTCACGTGTTGTT | -0.293 |
| GTTGACACGTGAGTAG | 1.05 |
| TGGTACACGTGTGAGG | 0.46 |
| GAGAGCACGTGGTTCG | 0.209 |
| TACTGCACGTGGCGGT | -0.544 |
| GTAGTCACGTGGAGCT | 1.09 |
| CTTTTCACGTGAATTT | 1.38 |
| GGTAGCACGTGGAAAG | 0.586 |
| TCTATCACGTGGGGGG | 0 |
| GATGTCACGTGTATAG | 0.92 |
| ATTCCCACGTGTTGGT | 0 |
| GTTGGCACGTGCGGTT | -0.335 |
| TATGGCACGTGTAATA | 0.167 |
| TTTCGCACGTGGCTGG | -0.711 |
| ACGGTCACGTGATTTA | 0.962 |
